From PMC6919601, “Identification of Plasmodium dipeptidyl aminopeptidase allosteric inhibitors by high throughput screening” (PLoS ONE, 2019) come the findings set out here.

The structures appear in SMILES notation. About 230 (0.21%) of roughly 110,000 compounds showed an effect of 50% or more. The list shows a part of the results.
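Further: 30 min substrate incubation versus DMSO and 10 µM JCP410 controls.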

DPAP1, sequence (Q8IIJ9 whole entry, looked up): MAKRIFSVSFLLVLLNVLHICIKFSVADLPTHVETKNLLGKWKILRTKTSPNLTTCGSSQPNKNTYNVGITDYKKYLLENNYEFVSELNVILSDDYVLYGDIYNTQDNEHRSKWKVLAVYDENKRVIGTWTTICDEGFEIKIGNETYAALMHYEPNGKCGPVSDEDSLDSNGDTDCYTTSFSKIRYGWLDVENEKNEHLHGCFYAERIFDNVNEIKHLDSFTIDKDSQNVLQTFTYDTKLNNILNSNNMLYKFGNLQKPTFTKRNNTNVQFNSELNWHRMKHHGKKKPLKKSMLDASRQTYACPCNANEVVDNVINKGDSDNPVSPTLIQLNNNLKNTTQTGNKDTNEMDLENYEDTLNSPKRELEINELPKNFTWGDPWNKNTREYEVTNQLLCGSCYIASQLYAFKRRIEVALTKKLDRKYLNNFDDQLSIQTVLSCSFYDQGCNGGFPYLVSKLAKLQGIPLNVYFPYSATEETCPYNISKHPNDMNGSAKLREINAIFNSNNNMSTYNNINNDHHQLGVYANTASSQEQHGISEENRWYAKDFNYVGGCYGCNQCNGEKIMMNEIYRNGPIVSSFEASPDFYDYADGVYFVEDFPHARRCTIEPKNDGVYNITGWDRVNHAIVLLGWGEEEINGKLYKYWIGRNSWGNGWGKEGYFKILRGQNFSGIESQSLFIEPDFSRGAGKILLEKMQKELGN

The assay concerns the target DPAP1 (Plasmodium falciparum, UniProt Q8IIJ9). The assay is described as follows: primary screen, percent inhibition; read by cleavage of a fluorogenic dipeptide substrate; higher = more effect of the substance. Details: species or system P. falciparum D10 trophozoite lysates; single well.
Take `O=C(CN1CCN(Cc2ccccc2)C1=O)NCCCN1CCOCC1`: the “% Inhibition @ 10 uM” value is recorded as -0.704%.
The same measure for `Cc1ccc2nc(/N=C(\N)NC(=O)Cc3ccc(Cl)cc3)nc(C)c2c1`: 5.55%; for `Cc1ccc(OCC(O)CN2CCCCC2)cc1C` (stereo not drawn): 3.47%; for `COc1cccc(OC)c1C(=O)N1CCN(C(=O)c2ccccc2)CC1`: -2.87%.
The same measure for `COc1ccc(NC(=O)c2c(-c3ccccc3Cl)noc2C)c(OC)c1`: 0.35%.
In the case of `CCCn1c2ccccc2c2cnn(CC(=O)NCCc3c[nH]c4ccccc34)c(=O)c21`, the “% Inhibition @ 10 uM” value is listed as -0.968%.
The same measure for `CCC(NC(=O)c1c(Cl)cnn1C)c1ccc(C(C)C)cc1` (stereo not drawn): 2.32%.
The same measure for `C/N=c1\c(NC(=O)CCc2ccccc2)c(O)oc2ccccc12`: 2.5%.
With `C#CCNC(=O)NC(=O)c1sc2ccccc2c1Cl`, the “% Inhibition @ 10 uM” value is recorded as -2.36%.
The same measure for `COc1cc(/C=N/n2cnnc2S)ccc1O`: 38.6%; for `Cc1cc2ncn(CCOc3ccccc3)c2cc1C`: -4.07%; for `COc1ccc(CN2C(=O)NC(=O)/C(=C\c3ccc4c(c3)OCO4)C2=O)cc1`: -4.93%.
The same measure for `CCOC(=O)C1=C(C)OC(N)=C(C#N)C1c1ccccc1[N+](=O)[O-]` (stereo not drawn): 6.4%; for `Cc1c2c(cc3c1oc(=O)c1ccccc13)CN(Cc1ccco1)CO2`: -4.39%.
The result for `COc1cccc(-n2c(C)cc(/C=C3\C(=N)N4N=C(S(=O)(=O)CC(C)C)SC4=NC3=O)c2C)c1` reads -1.54%; that for `Cc1ccc(CNC(=O)CSc2nc3ncccc3o2)cc1`, -8.36%; that for `Cc1ccc(C(=O)Nc2c(C)nc3ncnn3c2O)cc1`, 1.86%.
For the compound `Cc1nn(C(C)C(=O)NCc2ccccc2)c(=O)c2cc3sccc3n12` (stereo not drawn), the “% Inhibition @ 10 uM” value is -3.35%.
The same measure for `CC(Oc1ccccc1)C(=O)Nc1ccc(Cl)c(Cl)c1` (stereo not drawn): 0.843%.
The same measure for `CC(C)(NC(=O)[C@H](CS(=O)(=O)Cc1ccccc1OC(F)F)NC(=O)N1CCOCC1)C(=O)c1nnc(-c2cccnc2)o1`: -1.82%; for `O=C1N(c2cccc(C(F)(F)F)c2)C2CS(=O)(=O)CC2N1c1ccc(Cl)c(Cl)c1` (stereo not drawn): 3.91%; for `CCOc1cccc(Oc2cccc(N)n2)c1`: 5.84%.
The same measure for `Cc1oc2ccc(O)c(CN3CCOCC3)c2c1C(=O)NC1CCCC1`: 0.486%.
Turning to `COc1ccc(S(=O)(=O)N(C)CC(=O)N(Cc2ccccc2)Cc2ccccc2)cc1OC`, the “% Inhibition @ 10 uM” value was -2.5%.
On to `COc1ccc2c(CNCc3ccc4c(c3)OCO4)c(C(=O)O)n(Cc3ccc(F)cc3)c2c1`, for which the “% Inhibition @ 10 uM” value is -2.1%.
In the case of `CC(Cc1ccccc1S(=O)c1ccccc1)N(C)C` (stereo not drawn), the “% Inhibition @ 10 uM” value turned out to be 4.3%.
The result for `CCN(CC)S(=O)(=O)c1ccc(NC(=O)c2cccs2)cc1` reads -2.68%.
